Assay results taken from PubChem BioAssay AID1768 (National Center for Advancing Translational Sciences (NCATS), 2009).
The whole screen tested about 270,000 compounds, of which about 620 (0.23%) were called active. This list was built around the results that the source calls inconclusive (neither active nor inactive); the mix of calls is not that of the screen. Calls come from the whole dose curve; as a rule, active = well fitted inhibition curve with a large enough effect in the polarisation, with a control signal flat (not every such curve was filed as active); inconclusive = small, poorly fitted or top-dose-only effect, or effect the other way, or a change in a side signal; inactive = no such curve, though single readings can be large or run the other way; the % refers to the polarisation. Potencies beside an inconclusive call are fits to weak or partial responses and may not hold up. “Side channel” marks fits to a control or component signal instead of the main read-out.
Potency is the fitted concentration of half-maximal effect; tags give direction and shape of the fitted curve or compound fluorescence and quenching.
Throughout, for FP activity change, negative = inhibition: % of control where 0% means no effect.

These molecules were tested against Menin (Homo sapiens) (UniProt O00255) (assay: qHTS Assay for Inhibitors Targeting the Menin-MLL Interaction in MLL Related Leukemias: Competition With Texas Red Labeled MLL-derived Mutant Peptide). Settings: fluorescence polarization; FP activity change, negative = inhibition: at 61.6 µM (top of the series).
UniProt O00255, sequence (O00255 whole entry, looked up): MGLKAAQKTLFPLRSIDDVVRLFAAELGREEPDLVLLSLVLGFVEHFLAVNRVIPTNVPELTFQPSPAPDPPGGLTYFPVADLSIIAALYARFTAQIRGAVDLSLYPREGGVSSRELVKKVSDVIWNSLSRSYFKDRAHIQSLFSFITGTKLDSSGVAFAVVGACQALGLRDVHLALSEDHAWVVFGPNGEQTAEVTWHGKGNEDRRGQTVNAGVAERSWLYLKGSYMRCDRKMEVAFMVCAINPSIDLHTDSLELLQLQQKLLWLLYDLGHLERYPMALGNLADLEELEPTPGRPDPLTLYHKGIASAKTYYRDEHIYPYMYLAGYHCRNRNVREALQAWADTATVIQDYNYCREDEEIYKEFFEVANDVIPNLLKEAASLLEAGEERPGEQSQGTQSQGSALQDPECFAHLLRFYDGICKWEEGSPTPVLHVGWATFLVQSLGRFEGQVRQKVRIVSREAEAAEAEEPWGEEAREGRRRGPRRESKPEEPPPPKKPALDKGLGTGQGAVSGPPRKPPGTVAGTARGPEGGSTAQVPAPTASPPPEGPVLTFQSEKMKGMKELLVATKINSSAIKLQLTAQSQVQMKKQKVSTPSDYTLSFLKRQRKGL
For COc1ccc(C2=Nn3c(nnc3-c3ccccc3OC)SC2)cc1OC, the Potency was active: 11.2 µM. With CCOC(=O)C1(CCc2ccccc2)CCN(C(=O)c2ccoc2)CC1 the Potency was inconclusive: 11.2 µM [fluorescent, side channel, partial curve]. In the case of COc1cccc(NC(=O)Cn2c(CCC(=O)O)ccc2-c2ccc(Cl)cc2)c1, the Potency is reported as inconclusive: 31.6 µM [quencher, side channel, partial curve]. In the case of CCCCCc1c2c(cc(O)c1C(=O)O)OC(=O)c1c(cc(OC)cc1C(=O)CCCC)O2, the Potency is reported as inconclusive: 7.94 µM [quencher, side channel, partial curve]. With COc1ccccc1NC(=O)NCCN1CCN(c2cccc(Cl)c2)CC1 the Potency was inconclusive: 39.8 µM [inhibitor, single point]. For CC(C)(C)c1ccc(NC(=O)CNC2CCCc3ccccc32)cc1 (stereo not drawn), the Potency was inconclusive: 14.1 µM [fluorescent, side channel, partial curve]. For O=C(Nc1cccc(F)c1)N1CCCC2(CCN(S(=O)(=O)c3ccccc3)CC2)C1, the “FP activity change, negative = inhibition” value was inactive: 8.61%. With COc1ccccc1CNC(=O)COC(=O)[C@H](Cc1c[nH]c2ccccc12)NC(=O)c1cccs1 the Potency was inconclusive: 25.1 µM [quencher, side channel, single point]. In the case of Cc1ccc(C2=NS(=O)(=O)N(C)C(C(=O)NCc3ccc(F)cc3)=C2)cc1, the Potency is reported as inconclusive: 35.5 µM [quencher, side channel, single point]. With CC[C@H]1C(c2ccc(F)cc2)=NN(c2ccccc2)[C@@H]1CO the Potency was inconclusive: 31.6 µM [quencher, side channel, single point]. For Oc1ccc(Br)cc1/C=N/NC(=S)NCCc1ccccc1, the Potency was inconclusive: 14.1 µM [quencher, side channel, partial curve]. CSc1ccc(-c2ccco2)nn1 was tested, and the Potency was inconclusive: 17.8 µM [quencher, side channel, single point]. In the case of O=C1N=c2ccccc2=C1c1[nH]c(=S)[nH]c1O, the Potency is reported as inconclusive: 15.8 µM [quencher, side channel, partial curve]. For COc1ccccc1-n1cnc2cc(NS(=O)(=O)c3ccccc3)ccc21, the Potency was inconclusive: 31.6 µM [inhibitor, partial curve]. O=C(c1sc2ccccc2c1Cl)N(Cc1ccccc1Cl)C1CCS(=O)(=O)C1 (stereo not drawn) was tested, and the Potency was inconclusive: 15.8 µM [inhibitor, partial curve]. For COc1ccc(S(=O)(=O)N(C)CC(=O)NC2CCCC2)cc1Cl, the “FP activity change, negative = inhibition” value was inactive: 7.79%. For CC1CC=CC2C1C(=O)N(Cc1ccccc1)C2c1ccc2ccccc2c1Br (stereo not drawn), the Potency was inconclusive: 2 µM [inhibitor, partial curve, poor fit]. For CO/N=C(\C(=O)N[C@@H]1C(=O)N2C(C(=O)[O-])=C(C[N+]3(C)CCCC3)CS[C@@H]12)c1csc(N)n1, the “FP activity change, negative = inhibition” value was inactive: 0.398% [at 24.8 µM]. In the case of Cc1cccc(NCC(=O)N/N=C\c2c[nH]c3ccccc23)c1, the Potency is reported as inconclusive: 12.6 µM [quencher, side channel, partial curve]. Fc1c(F)c(F)c(N/N=C/c2c[nH]c3ccccc23)c(F)c1F was tested, and the Potency was inconclusive: 11.2 µM [quencher, side channel, partial curve]. Cc1ccc2nc(N3C(=O)C(O)=C(C(=O)c4ccco4)C3c3cccc(O)c3)sc2c1 (stereo not drawn) was tested, and the Potency was inconclusive: 14.1 µM [quencher, side channel, partial curve]. In the case of CN(C)CCCN(C(=O)c1ccc(Br)s1)c1nc2cc3c(cc2s1)OCO3, the Potency is reported as inconclusive: 15.8 µM [fluorescent, side channel, partial curve]. O=C(NC1CC1)C1CC(=O)N(c2ccc(F)cc2)C1 (stereo not drawn) was tested, and the Potency was inconclusive: 3.55 µM [inhibitor, partial curve]. Cc1ccc(N/N=C(\C#N)C(N)=S)cc1C was tested, and the Potency was inconclusive: 14.1 µM [quencher, side channel, partial curve]. With CCn1cc(/C=C(\NC(=O)c2ccc(C)cc2)C(=O)NCCCN2CCOCC2)c2ccccc21 the Potency was inconclusive: 39.8 µM [inhibitor, single point]. With CCOC(=O)c1cccc(NC(=O)CSc2nnc(C3CCCCC3)n2C)c1 the Potency was inconclusive: 0.631 µM [inhibitor, full curve, poor fit]. Cc1ccccc1CN(C)CCc1ccccn1 was tested, and the “FP activity change, negative = inhibition” value was inactive: 0.427%. For CC(=O)c1ccc2noc(-c3ccccc3)c2c1, the Potency was inconclusive: 39.8 µM [quencher, side channel, single point]. With CCOC(=O)c1sc(NC(=O)c2cccs2)cc1C the Potency was inconclusive: 12.6 µM [quencher, side channel, partial curve]. With O=C(Nc1ncnc2c1ncn2[C@@H]1O[C@@H]2COP(=O)(O)O[C@H]2[C@H]1O)c1ccccc1 the “FP activity change, negative = inhibition” value was inactive: -1.4%. With Cn1cnc([N+](=O)[O-])c1Sc1nnc(-c2cccnc2)n1C the Potency was inconclusive: 35.5 µM [inhibitor, partial curve]. For Fc1ccc(C2Nc3cccc4cccc(c34)N2)cc1, the Potency was inconclusive: 25.1 µM [quencher, side channel, partial curve]. In the case of CCCCCCc1c(O)nc(SCCN2CCOCC2)[nH]c1=O, the Potency is reported as inconclusive: 39.8 µM [inhibitor, single point]. With CCCCC1=CC2=C(c3ccco3)C(=O)C(C)(OC(=O)c3ccc(Cl)nc3)C(=O)C2=CO1 (stereo not drawn) the “FP activity change, negative = inhibition” value was inactive: 35.1%. COc1ccc(OCC2CCCN(Cc3nc(CC4CC4)no3)C2)cc1 (stereo not drawn) was tested, and the Potency was inconclusive: 28.2 µM [fluorescent, side channel, single point]. For CC1CCN(Cc2ccc(-c3nnn(CC(=O)Nc4ccccc4Cl)n3)cc2)CC1, the Potency was inconclusive: 25.1 µM [fluorescent, side channel, partial curve]. CCOc1ccc(-n2c(O)c(/C=N/Nc3nnc(C)c(=O)[nH]3)c3ccccc3c2=O)cc1 was tested, and the Potency was inconclusive: 20 µM [quencher, side channel, partial curve]. In the case of Cc1[nH][nH]c(=O)c1C(c1ccc(-c2cccc(C(=O)O)c2)o1)c1c(C)[nH][nH]c1=O, the Potency is reported as inconclusive: 39.8 µM [quencher, side channel, single point].
